# Results from the RNAGym collection of RNA variant scans (doi:10.7554/elife.90254).
# Read counts are not given, so values of variants with three or more changes are uncertain.
# B1: OR4K15 (parent)
# chain: GUUAACGGUCAUAGGCCAUGGAAACUAGGAGCACCAUUUCGCUGCCAGUGAAGAAAUGAACAAAGAAAAUCUGGGCCAGGCAGGCAUCAAAAGAAAUAGUCUUGCGCUCAACCAGAAAGUCUGUAAUCAUUUUAAGGGUA
# Variants of: B1
# Test: self-cleavage, relative activity (ratio to wild type); higher = more cleavage; in vitro, sequencing; the parent is a self-cleaving ribozyme
row,Variant,self-cleavage
1,G41A U97A C128U,1.27
2,A27U G50A U108C,0.02
3,A23G A55C A60G U133C,0.08
4,A60G A86G U122G,1.51
5,A68G A91G G115A A126G,0.03
6,A5U A63U A67G A110G,0.38
7,U19C A66G U103A G115U A125G,0
8,A90G A95G A98G A116G,0.5
9,U38C U103C A126G A140G,0.86
10,G29A A78G A118G,0.13
11,A27G U70A A95G,1.39
12,A24C U43C G84A,1.48
13,C17A A33G C35U U39A,0.7
14,U19A U39A A91G A116G,1.06
15,G14A A86U A114U U130C,0.01
16,U2C U87C A98G A117G,0.71
17,A90G A96G A110G U122A,0.1
18,A47U A111G U122C,0.01
19,U2C U19C A54G U127C,0.91
20,U87C A125G U130C,0.02
21,U2C U49C A67G A96G,1.4

row,Variant,self-cleavage
1,A18G A24G A118G,0.79
2,A11G G50A A62G,1.54
3,C16G U108A A114G,0.09
4,A51U A68G U103A A110G,0.04
5,G8A A11U A91G A110G,0.09
6,C10U U43A U122C U131C A135U,0.37
7,A23G A36G U38C A91U A111G,0.07
8,A22G U100C A111G U127A U132C,0.01
9,U26A U39C A96G A140C,1.64
10,A55U A63G A67G U103C,0.98
11,A63C U102C A116U,0.73
12,U12C A69G A116G,0.55
13,A30G A110U A116U U122C,0.29
14,A24G A66G A86G A89G A140U,0.67
15,A55G A89G A96G A111G,0
16,C42U A66G U103A U120C,0.55
17,A33U A86G U102C U103C,0.28
18,A11U G41A A68G A95G,1.7
19,U2C U87C G93A,1.5
20,A30C A52G U108C,0.01
21,U12C A56G A96G,1.72

row,Variant,self-cleavage
1,A24G A110G A125U,0.55
2,A23G A52G A55G A60G U100A,0.41
3,U3A C112A A118G U131C,0
4,U9C A60G A90G,0.78
5,U3C A22U U120G,1.61
6,A23G G31U U43C A52G A66G,1.22
7,A13U A33G U37C,1.66
8,A11U A62U A110C,0.44
9,A55G A68U A95G,2.07
10,C46U U57A A60G,0.83
11,A22G A60G A68U A129G,0.49
12,A11G A51G A95C,0.69
13,A59G G83U G138U,0.61
14,A67G U87A A90G,0.56
15,U9A A36G A117G,1.02
16,U3C A126G U139C,0.88
17,A30U U38A A60G A110G U120A U122C,0.09
18,A18U A52G A64G A129C A140U,0.87
19,A4G A5G U26C,0.62
20,A18U A52G A140G,1.82
21,U19A A63G A78G U87C A94G A98U,0.24

row,Variant,self-cleavage
1,A11G A36U G44A A68G,0.54
2,U9A A22G A33C U103C,0.41
3,A55G A91G A110G,0.15
4,A5G A59G U127C,0.67
5,U70C U87C A114G A118G,0.09
6,U2C U19A A95G,1
7,A13U U72C U108C,0.05
8,U9A U37C A114C,0
9,C34U G115A A126G,0.03
10,U3C U12C U37C A62G,0.67
11,U3C U37C U87C A118G,1.42
12,A24G C46U A63G A69G U70C A125G,0.05
13,G7A A51U A52G A90U A129C,1.26
14,U2C A18U A30G,0.83
15,U2C A51U C77U,1.36
16,A55G A64G A91G,0.89
17,A22U A54G C71A,0.74
18,U87C G104A A114U,0.01
19,U72G A95G A96G,0.2
20,U12C U43C A51U,1.39
